Laboratory results as given in PubChem BioAssay AID686978 (National Center for Advancing Translational Sciences (NCATS), 2013).
Hit rate of the full screen: of about 420,000 compounds, about 64,000 (15%) were called active. The shares of active, inactive and inconclusive entries below differ from those in the screen. Calls come from the whole dose curve; as a rule, active = well fitted inhibition curve with a large enough effect; inconclusive = small, poorly fitted or top-dose-only effect; inactive = flat fitted curve, though single readings scatter. No potency is given beside an inconclusive call; the fits are too rough.
% is set by controls: 0 for no effect and ±100 for the full control effect; potency is the fitted concentration of half-maximal effect; tags give direction and shape of the fitted curve.

Experiment: qHTS for Inhibitors of human tyrosyl-DNA phosphodiesterase 1 (TDP1): qHTS in cells in absence of CPT; note: nearly all actives have a fitted effect of over 55% in size
Details: DT40 Tdp1-/- hTDP1 cells, no CPT, ATP luminescence, 48 h; activity change, negative = growth inhibition: at 46.2 µM (top of the series) unless noted
How it was run: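 Growth of hTDP1-complemented DT40 Tdp1-knockout cells is measured by ATP luminescence after at least 48 hr compound exposure at 37 °C, with DMSO substituting for the 20 nM CPT used in the parallel screen.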
In the case of c1ccc(C[C@H]2CN=C(Nc3ccccc3)N2CCCC2CCCCC2)cc1, the Potency is reported as active: 16.4 µM. In the case of Cc1cnc2c(C)ccc(C)c2c1/C=C/c1ccc(N(C)C)cc1, the Potency is reported as active: 15.8 µM. In the case of O=S(=O)(c1ccccc1)c1nnn2c1nc(NC1CCN(Cc3ccccc3)CC1)c1cc(Cl)ccc12, the Potency is reported as active: 4.11 µM. For COc1cccc(C(=O)NC(=S)Nc2nnn(C)n2)c1, the Potency was inconclusive [inhibitor, single point]. For CNC(=S)N/N=C/c1c(Cl)cccc1Cl, the Potency was inconclusive [inhibitor, single point]. With Cc1ccc(C(=O)C2Oc3ccccc3C3CC(c4ccc(C)cc4)=NN23)cc1 (centres undefined) the Potency was inconclusive [inhibitor, single point]. For CCNC(=S)N/N=C1\C(=O)c2cccc3cccc1c23, the “activity change, negative = growth inhibition” value was inactive: -15.2%. With CCCS(=O)(=O)c1c(S(=O)(=O)CCC)c2ccc(C(C)=O)cn2c1C(=O)OC the “activity change, negative = growth inhibition” value was inactive: -7.27%. In the case of CN1CCN(c2ccc(NC(=O)COc3ccccc3)cc2Cl)CC1, the Potency is reported as inconclusive [inhibitor, single point]. For COc1cc(C2Nc3ccccc3-c3nnc(SCc4ccc(C)cc4)nc3O2)cc(OC)c1O (centres undefined), the Potency was inconclusive [inhibitor, single point]. For CCCC(C)NC(=S)NC(=O)c1cc(S(=O)(=O)N2CCOCC2)ccc1C (centres undefined), the Potency was active: 13 µM. For O=C(Cc1ccccc1F)Nc1ccc(S(=O)(=O)N2CCCC2)cc1, the “activity change, negative = growth inhibition” value was inactive: 1.27%. With COc1ccc(OC)c(/C=N/Nc2nc(C)cc(=O)[nH]2)c1 the Potency was inconclusive [inhibitor, single point]. In the case of COc1ccc(-n2c(Cc3cccn3C)nnc2SCC(=O)Nc2ccc(C(C)=O)cc2)cc1, the “activity change, negative = growth inhibition” value is reported as inactive: -7.84%. With O=C(O)CSc1nc(-c2ccccc2)cc(=O)[nH]1 the “activity change, negative = growth inhibition” value was inactive: -0.192%. In the case of Cc1c(Cl)cccc1NC(=O)Cn1c(=O)n(Cc2nc(-c3ccccc3)no2)c(=O)c2cc3c(cc21)OCO3, the Potency is reported as inconclusive [inhibitor, single point]. In the case of Fc1ccccc1CNCCC(Cc1ccccc1)c1ccc2c(c1)OCO2 (centres undefined), the Potency is reported as inconclusive [inhibitor, single point]. With C=CCSc1nccc(-c2nn(-c3ccc(C)cc3)ccc2=O)n1 the Potency was active: 5.8 µM. For Fc1ccccc1NC(=S)N1CCC(c2ccccc2)C1 (centres undefined), the Potency was inconclusive [inhibitor, partial curve]. With Cc1ccc(Cn2c(=O)c3cccnc3n(CC(=O)Nc3cc(Cl)ccc3C)c2=O)cc1 the Potency was inconclusive [inhibitor, full curve]. With CSc1ccc(CCNC(=O)c2cc3cc4cc(C)ccc4nc3s2)cc1 the Potency was inconclusive [inhibitor, partial curve]. With COc1ccccc1NS(=O)(=O)c1cc(NC(=O)C(C)C)ccc1N1CCCCC1 the Potency was inconclusive [inhibitor, single point]. For COc1ccc(-c2cnc3c(NC(C)=O)cc(-c4cccc(C(=O)N(C)C)c4)cn23)cc1OC, the Potency was active: 13 µM. In the case of CC(C)c1ccc(NC(=O)[C@H]2CSCN2C(=O)[C@@H]2CCC(=O)N2)cc1, the “activity change, negative = growth inhibition” value is reported as inactive: 5.23%. For CC(=O)c1ccc(S(=O)(=O)N2CCN(C(=O)CSc3ccc(C)c(C)c3)CC2)cc1, the Potency was inconclusive [inhibitor, single point]. In the case of O=C(N/C=N/OCc1ccc(Cl)cc1Cl)NOCc1ncc(C(F)(F)F)cc1Cl, the Potency is reported as active: 14.6 µM. With CC1(C)CC(NC(=S)Nc2ccc(S(N)(=O)=O)cc2)CC(C)(C)N1 the “activity change, negative = growth inhibition” value was inactive: -15.1%. With CCOC(=O)[C@]12CCCC=C1N(Cc1ccccc1)C(=O)[C@H](CC(=O)NCc1ccc(OC)c(OC)c1)C2 the Potency was inconclusive [inhibitor, single point]. With Cc1ccc(Nc2cc(C)c(C#N)c3nc4ccccc4n23)c(C)c1 the Potency was active: 13 µM. In the case of COC(=O)c1sccc1S(=O)(=O)N(CC(=O)Nc1ccccc1)c1ccccc1, the Potency is reported as inconclusive [inhibitor, single point]. In the case of Cc1c(Cl)cccc1NC(=O)C1CCN(c2nc3ccccc3[nH]2)CC1, the Potency is reported as inconclusive [inhibitor, single point]. In the case of CCc1ccc(CNC(=O)c2cnc3c(C)cccn3c2=O)cc1, the Potency is reported as inconclusive [inhibitor, single point]. In the case of CCCC(=O)Nc1cccc(-c2cn3c(C)csc3n2)c1, the Potency is reported as inconclusive [inhibitor, single point]. For C/C(=N\NC(=O)COc1ccc(C#N)cc1)c1ccccc1OC(F)F, the Potency was inconclusive [inhibitor, partial curve, poor fit]. For Cc1ccc(/C=C2/Sc3ccccc3N(CC(=O)NCC3CCCO3)C2=O)cc1 (centres undefined), the Potency was inconclusive [inhibitor, single point]. In the case of COc1cccc(C2/C(=C(/O)c3ccc4c(c3)CC(C)O4)C(=O)C(=O)N2CCCn2ccnc2)c1 (centres undefined), the “activity change, negative = growth inhibition” value is reported as inactive: -0.596%. In the case of COC(=O)c1ccc(Oc2c(F)c(F)nc(N3CCOCC3)c2F)cc1, the Potency is reported as inconclusive [inhibitor, partial curve]. In the case of COC(=O)c1ccc2nc(C3CCCCC3)c(Cc3ccc(OC)cc3C)n2c1, the Potency is reported as inconclusive [inhibitor, single point]. With Cc1cccc(C(C)C)c1NC(=O)c1ccc2c(c1)CCN2S(C)(=O)=O the Potency was inconclusive [inhibitor, single point]. For N#C/C(=C\c1c(Cl)cccc1Cl)c1nc2ccccc2[nH]1, the “activity change, negative = growth inhibition” value was inactive: -26%. In the case of COc1cc(NC(=O)c2cc([N+](=O)[O-])ccc2N2CCOCC2)ccc1NC(=O)c1ccco1, the “activity change, negative = growth inhibition” value is reported as inactive: -14%. With COc1ccc(N(CC(=O)Nc2ccccc2OC)S(=O)(=O)c2ccc(OC)c(OC)c2)cc1 the “activity change, negative = growth inhibition” value was inactive: -14.9%. For Cn1cccc1C(=O)N1CCC2(CCCN(c3ccc(-c4ccccc4)cc3)C2)CC1, the Potency was inconclusive [inhibitor, single point]. For Cc1cc2nc(-c3cccc(Br)c3)c(CC(C)(C)C)n2c(C)c1Br, the “activity change, negative = growth inhibition” value was inactive: -44.4%. With Cc1cccc(Nc2nnc(-c3ccc(C)c(S(=O)(=O)N4CCN(C)CC4)c3)c3ccccc23)c1 the Potency was inconclusive [inhibitor, single point]. In the case of Cc1ccc(C)c(N2CCN(C(=O)c3ccc(Cl)c(NC4=NC5CS(=O)(=O)CC5S4)c3)CC2)c1 (centres undefined), the Potency is reported as inconclusive [inhibitor, single point]. In the case of O=C1c2ccccc2C(=O)N1CCN1CCc2ccccc21, the “activity change, negative = growth inhibition” value is reported as inactive: -0.242%. With CN=C1N(C)C[C@@H]2[C@@H]3C(=O)N(C)C(=O)[C@@H]3[C@](Cc3ccccc3)(C(=O)OC)N12 the “activity change, negative = growth inhibition” value was inactive: 16%. For CC(=O)Nc1ccc(S(=O)(=O)N2CCN(c3cc(C(F)(F)F)ccn3)CC2)cc1, the Potency was active: 16.4 µM. With CCOC(=O)c1cnc(SCc2nc(N)nc(Nc3ccccc3)n2)nc1N the Potency was active: 16.4 µM. In the case of CCOC(=O)c1cc2c(=O)n3ccccc3nc2n(CC2CCCO2)c1=NC(=O)/C=C/c1ccccc1 (centres undefined), the Potency is reported as active: 14.6 µM. In the case of Cc1ccc(CSCC(=O)N(C)CC(=O)Nc2ccccc2Cl)cc1, the Potency is reported as inconclusive [inhibitor, single point]. For COc1ccc(C(C#N)CC(=O)c2ccc(OCc3ccccc3)c(OC)c2)cc1OC (centres undefined), the Potency was inconclusive [inhibitor, single point]. With COC(=O)C[C@H]1c2ccccc2S(=O)(=O)N1Cc1ccc(OC)cc1 the Potency was inconclusive [inhibitor, single point]. With Cc1ccccc1C(=O)NCCNC(=O)c1ccco1 the “activity change, negative = growth inhibition” value was inactive: 4.92%. With CC1(C(=O)NCc2cccc3ccccc23)CCN1C(=O)Cc1ccc(-c2ccccc2)cc1 (centres undefined) the Potency was inconclusive [inhibitor, single point]. In the case of Cc1ccc(-n2nc(-c3ccccc3)c3cnc4cc5c(cc4c32)OCO5)cc1C, the “activity change, negative = growth inhibition” value is reported as inactive: -20%. For CCCCc1ccc(N2C(=O)[C@@H]3C(CC(N)=O)NC4(C(=O)Nc5ccc(F)cc54)[C@@H]3C2=O)cc1 (some centres undefined), the “activity change, negative = growth inhibition” value was inactive: 0.283%. In the case of COc1ccc(C(C)=O)cc1COC(=O)c1ccc2c(c1)OCO2, the “activity change, negative = growth inhibition” value is reported as inactive: -18.1%. With CCn1c(CN2CCC(C)CC2)nc2cc(NC(=O)c3ccc([N+](=O)[O-])cc3)ccc21 the Potency was inconclusive [inhibitor, full curve]. For COc1cc2ccccc2cc1C(=O)N(CCN(C)C)c1nc2c(OC)ccc(OC)c2s1, the Potency was inconclusive [inhibitor, single point]. In the case of CC(=O)Nc1ccc(Nc2nc(C)cc(C)n2)cc1, the Potency is reported as inconclusive [inhibitor, single point]. With Cn1cc(SCC(=O)NCc2ccc3c(c2)OCO3)c2ccccc21 the activity change, negative = growth inhibition was inconclusive: -30.4% [inhibitor]. In the case of CC(=O)Nc1cccc(NC(=O)CSc2ccc(-c3sc(-c4ccccc4)nc3C)nn2)c1, the Potency is reported as active: 5.8 µM. For COc1cc(OC)c2c(-c3ccccc3)cc(=O)oc2c1C(CC(=O)N1CCOCC1)c1ccc(N(C)C)cc1 (centres undefined), the Potency was inconclusive [inhibitor, single point]. With COc1ccc(C2SCC(=O)N2c2nnc(C34CC5CC(CC(C5)C3)C4)s2)cc1 (centres undefined) the Potency was inconclusive [inhibitor, single point]. With Cc1cc(NC(=O)CN2C(=O)NC3(CCCCC3)C2=O)ccc1N1CCCC1 the Potency was inconclusive [inhibitor, partial curve, poor fit]. With Cc1cccc(NC(=S)N2CCCCCC2)c1 the Potency was inconclusive [inhibitor, single point]. With COc1cc(CN2CCC(Cc3ccccc3)CC2)cc(OC)c1OC the Potency was inconclusive [inhibitor, partial curve].
